# Some of the results follow.
# Key:
# Experiment in all cases: glycan array binding signal (z-score within array); higher = stronger binding
# Conditions in all cases: glycan notation: IUPAC condensed, linker removed
# [1] = biological target: Fuc(a1-2)Gal(b1-4)GlcNAc(b1-3)Gal(b1-4)GlcNAc(b1-2)Man(a1-3)[Fuc(a1-2)Gal(b1-4)GlcNAc(b1-3)Gal(b1-4)GlcNAc(b1-2)Man(a1-6)]Man(b1-4)GlcNAc(b1-4)GlcNAc
# Procedure, shortened: (§1)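 The binding signal is a Z-score computed within each array and averaged over linkers. Arrays of the same protein sequence at different concentrations or buffers were also averaged together. Data originate from 3228 arrays in the Consortium for Functional Glycomics database, kept only where the protein sequence was available.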
# [2] = biological target: Fuc(a1-2)Gal(b1-4)GlcNAc(b1-3)Gal(b1-4)GlcNAc(b1-3)Gal(b1-4)GlcNAc
# Procedure, shortened: as §1
# [3] = biological target: Fuc(a1-2)Gal(b1-4)GlcNAc(b1-3)GalNAc
# Procedure, shortened: as §1
# [4] = biological target: Fuc(a1-2)Gal(b1-4)GlcNAc(b1-3)[Fuc(a1-2)Gal(b1-4)GlcNAc(b1-6)]GalNAc
# Procedure, shortened: as §1
# [5] = biological target: Fuc(a1-2)Gal(b1-4)GlcNAc(b1-3)[Fuc(a1-3)[Gal(b1-4)]GlcNAc(b1-6)]Gal(b1-4)Glc
# Procedure, shortened: as §1
# [6] = biological target: Fuc(a1-2)Gal(b1-4)GlcNAc(b1-6)GalNAc
# Procedure, shortened: as §1
# [7] = biological target: Fuc(a1-2)Gal(b1-4)GlcNAc6S
# Procedure, shortened: as §1
# [8] = biological target: Fuc(a1-2)Gal(b1-4)[Fuc(a1-3)]GlcNAc
# Procedure, shortened: as §1
# [9] = biological target: Fuc(a1-2)Gal(b1-4)[Fuc(a1-3)]GlcNAc(b1-2)Man(a1-3)[Fuc(a1-2)Gal(b1-4)[Fuc(a1-3)]GlcNAc(b1-2)Man(a1-6)]Man(b1-4)GlcNAc(b1-4)[Fuc(a1-6)]GlcNAc
# Procedure, shortened: as §1
# [10] = biological target: Fuc(a1-2)Gal(b1-4)[Fuc(a1-3)]GlcNAc(b1-2)[Fuc(a1-2)Gal(b1-4)[Fuc(a1-3)]GlcNAc(b1-4)]Man(a1-3)[Fuc(a1-2)Gal(b1-4)[Fuc(a1-3)]GlcNAc(b1-2)Man(a1-6)]Man(b1-4)GlcNAc(b1-4)GlcNAc
# Procedure, shortened: as §1
# [11] = biological target: Fuc(a1-2)Gal(b1-4)[Fuc(a1-3)]GlcNAc(b1-3)Gal(b1-4)[Fuc(a1-3)]GlcNAc
# Procedure, shortened: as §1
# [12] = biological target: Fuc(a1-2)Gal(b1-4)[Fuc(a1-3)]GlcNAc(b1-3)Gal(b1-4)[Fuc(a1-3)]GlcNAc(b1-3)Gal(b1-4)[Fuc(a1-3)]GlcNAc
# Procedure, shortened: as §1
# [13] = biological target: Fuc(a1-2)Gal(b1-4)[Fuc(a1-3)]GlcNAc(b1-3)GalNAc
# Procedure, shortened: as §1
# [14] = biological target: Fuc(a1-2)Gal(b1-4)[Fuc(a1-3)]GlcNAc(b1-3)[Neu5Ac(a2-6)Gal(b1-4)GlcNAc(b1-6)]Gal(b1-4)Glc
# Procedure, shortened: as §1
# [15] = biological target: Fuc(a1-2)Gal3S(b1-4)GlcNAc
# Procedure, shortened: as §1
# [16] = biological target: Fuc(a1-2)Gal6S(b1-3)GlcNAc
# Procedure, shortened: as §1
# [17] = biological target: Fuc(a1-2)Gal6S(b1-3)GlcNAc6S
# Procedure, shortened: as §1
# Fuc(a1-2)Gal6S(b1-4)Glc = biological target: Fuc(a1-2)Gal6S(b1-4)Glc
# Procedure, shortened: as §1
# [18] = biological target: Fuc(a1-2)Gal6S(b1-4)Glc6S
# Procedure, shortened: as §1
# Fuc(a1-2)[Gal(a1-3)]Gal = biological target: Fuc(a1-2)[Gal(a1-3)]Gal
# Procedure, shortened: as §1
# [19] = biological target: Fuc(a1-2)[Gal(a1-3)]Gal(b1-3)GalNAc
# Procedure, shortened: as §1
# [20] = biological target: Fuc(a1-2)[Gal(a1-3)]Gal(b1-3)GalNAc(b1-3)Gal(a1-4)Gal(b1-4)Glc
# Procedure, shortened: as §1
# [21] = biological target: Fuc(a1-2)[Gal(a1-3)]Gal(b1-3)GlcNAc
# Procedure, shortened: as §1
# [22] = biological target: Fuc(a1-2)[Gal(a1-3)]Gal(b1-3)GlcNAc(b1-2)Man(a1-3)[Fuc(a1-2)[Gal(a1-3)]Gal(b1-3)GlcNAc(b1-2)Man(a1-6)]Man(b1-4)GlcNAc(b1-4)GlcNAc
# Procedure, shortened: as §1
# [23] = biological target: Fuc(a1-2)[Gal(a1-3)]Gal(b1-3)GlcNAc(b1-2)Man(a1-3)[Fuc(a1-2)[Gal(a1-3)]Gal(b1-3)GlcNAc(b1-2)Man(a1-6)]Man(b1-4)GlcNAc(b1-4)[Fuc(a1-6)]GlcNAc
# Procedure, shortened: as §1
# [24] = biological target: Fuc(a1-2)[Gal(a1-3)]Gal(b1-3)GlcNAc(b1-3)GalNAc
# Procedure, shortened: as §1
# [25] = biological target: Fuc(a1-2)[Gal(a1-3)]Gal(b1-3)GlcNAc(b1-6)GalNAc
# Procedure, shortened: as §1
# [26] = biological target: Fuc(a1-2)[Gal(a1-3)]Gal(b1-4)Glc
# Procedure, shortened: as §1
# [27] = biological target: Fuc(a1-2)[Gal(a1-3)]Gal(b1-4)GlcNAc
# Procedure, shortened: as §1
# [28] = biological target: Fuc(a1-2)[Gal(a1-3)]Gal(b1-4)GlcNAc(b1-2)Man
# Procedure, shortened: as §1
# [29] = biological target: Fuc(a1-2)[Gal(a1-3)]Gal(b1-4)GlcNAc(b1-2)Man(a1-3)[Fuc(a1-2)[Gal(a1-3)]Gal(b1-4)GlcNAc(b1-2)Man(a1-6)]Man(b1-4)GlcNAc(b1-4)GlcNAc
# Procedure, shortened: as §1
# [30] = biological target: Fuc(a1-2)[Gal(a1-3)]Gal(b1-4)GlcNAc(b1-2)Man(a1-3)[Fuc(a1-2)[Gal(a1-3)]Gal(b1-4)GlcNAc(b1-2)Man(a1-6)]Man(b1-4)GlcNAc(b1-4)[Fuc(a1-6)]GlcNAc
# Procedure, shortened: as §1
# [31] = biological target: Fuc(a1-2)[Gal(a1-3)]Gal(b1-4)GlcNAc(b1-3)GalNAc
# Procedure, shortened: as §1
# [32] = biological target: Fuc(a1-2)[Gal(a1-3)]Gal(b1-4)GlcNAc(b1-3)[Fuc(a1-2)[Gal(a1-3)]Gal(b1-4)GlcNAc(b1-6)]GalNAc
# Procedure, shortened: as §1
# [33] = biological target: Fuc(a1-2)[Gal(a1-3)]Gal(b1-4)GlcNAc(b1-6)GalNAc
# Procedure, shortened: as §1
# [34] = biological target: Fuc(a1-2)[Gal(a1-3)]Gal(b1-4)[Fuc(a1-3)]Glc
# Procedure, shortened: as §1
# [35] = biological target: Fuc(a1-2)[Gal(a1-3)]Gal(b1-4)[Fuc(a1-3)]GlcNAc
# Procedure, shortened: as §1
# [36] = biological target: Fuc(a1-2)[Gal(a1-3)]Gal(b1-4)[Fuc(a1-3)]GlcNAc(b1-3)GalNAc
# Procedure, shortened: as §1
# [37] = biological target: Fuc(a1-2)[Gal(a1-4)]Gal(b1-4)GlcNAc
# Procedure, shortened: as §1
# [38] = biological target: Fuc(a1-2)[GalNAc(a1-3)]Gal
# Procedure, shortened: as §1
# [39] = biological target: Fuc(a1-2)[GalNAc(a1-3)]Gal(b1-3)GalNAc(a1-3)[Fuc(a1-2)]Gal(b1-4)GlcNAc
# Procedure, shortened: as §1
# [40] = biological target: Fuc(a1-2)[GalNAc(a1-3)]Gal(b1-3)GalNAc(b1-3)Gal(a1-4)Gal(b1-4)Glc
# Procedure, shortened: as §1
# [41] = biological target: Fuc(a1-2)[GalNAc(a1-3)]Gal(b1-3)GlcNAc
# Procedure, shortened: as §1
# [42] = biological target: Fuc(a1-2)[GalNAc(a1-3)]Gal(b1-3)GlcNAc(b1-2)Man(a1-3)[Fuc(a1-2)[GalNAc(a1-3)]Gal(b1-3)GlcNAc(b1-2)Man(a1-6)]Man(b1-4)GlcNAc(b1-4)GlcNAc
# Procedure, shortened: as §1
# [43] = biological target: Fuc(a1-2)[GalNAc(a1-3)]Gal(b1-3)GlcNAc(b1-2)Man(a1-3)[Fuc(a1-2)[GalNAc(a1-3)]Gal(b1-3)GlcNAc(b1-2)Man(a1-6)]Man(b1-4)GlcNAc(b1-4)[Fuc(a1-6)]GlcNAc
# Procedure, shortened: as §1
binder,measurement,setting,value
"CFEM-PPm (Pichia pastoris), F2QPV1 (protein) AVATPPACLLACAAEVVKESSDCDALNNIQCICENEGSAIHACLESTCPDGLSSTALQSFEDVCE",glycan array binding signal (z-score),[1],-0.051
same,glycan array binding signal (z-score),[2],-0.286
same,glycan array binding signal (z-score),[3],1.77
same,glycan array binding signal (z-score),[4],-0.274
same,glycan array binding signal (z-score),[5],-0.365
same,glycan array binding signal (z-score),[6],-0.119
same,glycan array binding signal (z-score),[7],-0.134
same,glycan array binding signal (z-score),[8],-0.258
same,glycan array binding signal (z-score),[9],-0.114
same,glycan array binding signal (z-score),[10],0.328
same,glycan array binding signal (z-score),[11],-0.294
same,glycan array binding signal (z-score),[12],-0.261
same,glycan array binding signal (z-score),[13],1.31
same,glycan array binding signal (z-score),[14],-0.326
same,glycan array binding signal (z-score),[15],-0.276
same,glycan array binding signal (z-score),[16],-0.157
same,glycan array binding signal (z-score),[17],0.032
same,glycan array binding signal (z-score),Fuc(a1-2)Gal6S(b1-4)Glc,-0.115
same,glycan array binding signal (z-score),[18],-0.412
same,glycan array binding signal (z-score),Fuc(a1-2)[Gal(a1-3)]Gal,0.243
same,glycan array binding signal (z-score),[19],-0.269
same,glycan array binding signal (z-score),[20],-0.264
same,glycan array binding signal (z-score),[21],-0.127
same,glycan array binding signal (z-score),[22],-0.23
same,glycan array binding signal (z-score),[23],-0.265
same,glycan array binding signal (z-score),[24],-0.133
same,glycan array binding signal (z-score),[25],-0.208
same,glycan array binding signal (z-score),[26],-0.16
same,glycan array binding signal (z-score),[27],-0.175
same,glycan array binding signal (z-score),[28],-0.283
same,glycan array binding signal (z-score),[29],-0.317
same,glycan array binding signal (z-score),[30],-0.23
same,glycan array binding signal (z-score),[31],-0.477
same,glycan array binding signal (z-score),[32],0.009
same,glycan array binding signal (z-score),[33],-0.321
same,glycan array binding signal (z-score),[34],-0.44
same,glycan array binding signal (z-score),[35],-0.092
same,glycan array binding signal (z-score),[36],0.057
same,glycan array binding signal (z-score),[37],0.284
same,glycan array binding signal (z-score),[38],-0.252
same,glycan array binding signal (z-score),[39],-0.363
same,glycan array binding signal (z-score),[40],-0.397
same,glycan array binding signal (z-score),[41],-0.073
same,glycan array binding signal (z-score),[42],-0.371
same,glycan array binding signal (z-score),[43],0.003

# From the supplement of paper PMC8728848
